This note sets out measurements from the CheMixHub viscosity set.

SMILES strings stand for the structures. ± gives the uncertainty stated by the source. The source holds more than one record for some entries. The other results are left out here. The source may hold further records. Results that share an entry repeat one measurement in other runs, samples, wells, individuals or studies. A tag in brackets gives the origin of a value. Letters hold for one entry only. Marks such as (2×) give the number of equal values in this list.

Consider `C=Cc1ccccc1`, for which the viscosity reads like this: (298.15 K, 101.33 kPa) 0.709 ± 0.011 mPa·s, 0.709 ± 0.013 mPa·s [study A] and 0.708 ± 0.005 mPa·s, 0.708 ± 0.009 mPa·s, 0.7082 ± 0.0093 mPa·s, 0.708 ± 0.018 mPa·s, 0.7082 ± 0.018 mPa·s [study B] and 0.709 ± 0.037 mPa·s, 0.708 ± 0.037 mPa·s [study C]; (303.15 K, 101.33 kPa) 0.662 ± 0.011 mPa·s, 0.662 ± 0.013 mPa·s [study A] and 0.663 ± 0.005 mPa·s, 0.663 ± 0.009 mPa·s, 0.6627 ± 0.0088 mPa·s, 0.663 ± 0.017 mPa·s, 0.6627 ± 0.017 mPa·s [study B] and 0.662 ± 0.035 mPa·s [study C]; (308.15 K, 101.33 kPa) 0.623 ± 0.011 mPa·s, 0.623 ± 0.013 mPa·s [study A] and 0.623 ± 0.004 mPa·s, 0.623 ± 0.008 mPa·s, 0.6231 ± 0.0084 mPa·s, 0.623 ± 0.017 mPa·s, 0.6231 ± 0.017 mPa·s [study B] and 0.623 ± 0.033 mPa·s [study C].

For the compound `CCCCCCCCO`, the viscosity runs as follows: (303.15 K, 101 kPa) 6.493 ± 0.17 mPa·s, 6.513 ± 0.078 mPa·s, 6.344 ± 0.036 mPa·s, 6.446 ± 0.13 mPa·s, 5.969 ± 0.035 mPa·s, 6.602 ± 0.14 mPa·s, 6.125 ± 0.49 mPa·s, 6.207 ± 1.2 mPa·s, 6.247 ± 0.11 mPa·s, 6.201 ± 0.25 mPa·s, 5.969 ± 0.073 mPa·s [several studies]; (303.15 K, 101.33 kPa) 6.12 ± 0.25 mPa·s [study A] and 6.102 ± 0.036 mPa·s [study B] and 6.102 ± 0.043 mPa·s [study C] and 6.256 ± 0.13 mPa·s [study D] and 6.1 ± 0.034 mPa·s [study E] and 6.256 ± 0.052 mPa·s [study F] and 6.102 ± 0.065 mPa·s [study G] and 6.207 ± 0.066 mPa·s [study H]; (308.15 K, 100 kPa) 5.37 ± 0.97 mPa·s [study A] and 5.36 ± 0.069 mPa·s [study B] and 5.422 ± 0.15 mPa·s [study C] and 5.421 ± 0.17 mPa·s [study D] and 5.388 ± 0.15 mPa·s [study E] and 5.38 ± 0.22 mPa·s [study F]; (308.15 K, 101 kPa) 5.256 ± 0.05 mPa·s (2×), 5.257 ± 0.05 mPa·s, 5.363 ± 0.032 mPa·s, 5.009 ± 0.03 mPa·s, 5.274 ± 0.44 mPa·s, 5.422 ± 0.18 mPa·s, 5.403 ± 1.1 mPa·s, 5.522 ± 0.032 mPa·s, 5.01 ± 0.07 mPa·s, 5.213 ± 0.048 mPa·s, 5.422 ± 0.33 mPa·s [several studies]; (313.15 K, 101.33 kPa) 4.413 ± 0.028 mPa·s [study A] and 4.413 ± 0.033 mPa·s [study B] and 4.584 ± 0.11 mPa·s [study C] and 4.584 ± 0.04 mPa·s [study D] and 4.413 ± 0.05 mPa·s [study E]; (318.15 K, 100 kPa) 3.97 ± 0.71 mPa·s [study A] and 3.904 ± 0.05 mPa·s [study B] and 4.051 ± 0.11 mPa·s [study C] and 4.011 ± 0.11 mPa·s [study D] and 3.91 ± 0.16 mPa·s [study E].

As for `CC#N`, the viscosity by setting is: (293.15 K, 100 kPa) 0.386 ± 0.039 mPa·s [study A] and 0.36 ± 0.07 mPa·s [study B] and 0.3641 ± 0.037 mPa·s [study C] and 0.3642 ± 0.01 mPa·s [study D]; (293.15 K, 101 kPa) 0.35 ± 0.071 mPa·s [study A] and 0.355 ± 0.008 mPa·s [study B] and 0.364 ± 0.011 mPa·s [study C] and 0.366 ± 0.008 mPa·s [study D] and 0.355 ± 0.009 mPa·s [study E] and 0.36 ± 0.18 mPa·s [study F]; (298.15 K, 101 kPa) 0.259 ± 0.007 mPa·s, 0.324 ± 0.0049 mPa·s, 0.338 ± 0.004 mPa·s, 0.375 ± 0.01 mPa·s, 0.315 ± 0.004 mPa·s, 0.346 ± 0.011 mPa·s, 0.333 ± 0.067 mPa·s, 0.35 ± 0.18 mPa·s, 0.3462 ± 0.0074 mPa·s, 0.345 ± 0.005 mPa·s [several studies]; (303.15 K, 101 kPa) 0.332 ± 0.007 mPa·s, 0.312 ± 0.004 mPa·s, 0.326 ± 0.039 mPa·s, 0.353 ± 0.0075 mPa·s, 0.332 ± 0.003 mPa·s, 0.331 ± 0.011 mPa·s, 0.329 ± 0.005 mPa·s, 0.326 ± 0.033 mPa·s, 0.3307 ± 0.0071 mPa·s [several studies]; (313.15 K, 101 kPa) 0.279 ± 0.057 mPa·s [study A] and 0.297 ± 0.03 mPa·s [study B] and 0.31 ± 0.007 mPa·s [study C] and 0.303 ± 0.008 mPa·s [study D] and 0.2965 ± 0.0074 mPa·s [study E] and 0.337 ± 0.009 mPa·s [study F]; (318.15 K, 100 kPa) 0.2956 ± 0.03 mPa·s [study A] and 0.277 ± 0.056 mPa·s [study B] and 0.2912 ± 0.01 mPa·s [study C] and 0.286 ± 0.017 mPa·s [study D]. The viscosity (323.15 K, 101 kPa) was 0.276 ± 0.005 mPa·s [study A] and 0.291 ± 0.007 mPa·s [study B] and 0.287 ± 0.008 mPa·s [study C] and 0.276 ± 0.01 mPa·s [study D] and 0.279 ± 0.003 mPa·s [study E].

On to `CC(=O)c1ccc(Cl)cc1`, for which, for the setting “308.15 K, 101 kPa”, the viscosity is 2.355 ± 0.071 mPa·s [study A] and 2.293 ± 0.02 mPa·s [study B] and 2.293 ± 0.029 mPa·s [study C] and 2.292 ± 0.028 mPa·s [study D].

What is called viscosity is the resistance of a fluid to flow.
